From PubChem BioAssay (NCI)
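Five concentrations, 48 hours, 96-well plates. GI50 is the concentration that inhibits growth by half.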 For part of its entries the source gives two or more results. This is not the full list of results. There may be further records. For some assays here: Records of one sample usually come from different ranges of test concentrations, which the source does not state; some values may only mark the edge of a range. A tag in brackets gives the origin of a value. A, B and so on number the origins entry by entry. For some assays here: The records of an entry repeat one measurement in other runs, samples, wells, individuals or studies.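 TGI: total growth inhibition.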

Experiments:
Experiment in all cases: NCI anticancer screen, dose series, 48 h
CAKI-1 renal = tested on: CAKI-1 renal
DU-145 prostate = tested on: DU-145 prostate
HL-60(TB) leukemia = tested on: HL-60(TB) leukemia
HOP-92 NSCLC = tested on: HOP-92 NSCLC
MALME-3M melanoma = tested on: MALME-3M melanoma
SF-539 CNS = tested on: SF-539 CNS
UACC-62 melanoma = tested on: UACC-62 melanoma
UO-31 renal = tested on: UO-31 renal
OVCAR-4 ovarian = tested on: OVCAR-4 ovarian
CCRF-CEM leukemia = tested on: CCRF-CEM leukemia
EKVX NSCLC = tested on: EKVX NSCLC
HCT-116 colon = tested on: HCT-116 colon
HOP-18 NSCLC = tested on: HOP-18 NSCLC
HT29 colon = tested on: HT29 colon
KM12 colon = tested on: KM12 colon
NCI/ADR-RES ovarian = tested on: NCI/ADR-RES ovarian
OVCAR-8 ovarian = tested on: OVCAR-8 ovarian
PC-3 prostate = tested on: PC-3 prostate
RPMI-8226 leukemia = tested on: RPMI-8226 leukemia
SF-268 CNS = tested on: SF-268 CNS
SK-MEL-28 melanoma = tested on: SK-MEL-28 melanoma
SNB-19 CNS = tested on: SNB-19 CNS
SW-620 colon = tested on: SW-620 colon
MOLT-4 leukemia = tested on: MOLT-4 leukemia
HCC-2998 colon = tested on: HCC-2998 colon
A498 renal = tested on: A498 renal
COLO 205 colon = tested on: COLO 205 colon
IGROV1 ovarian = tested on: IGROV1 ovarian
MCF7 breast = tested on: MCF7 breast
OVCAR-3 ovarian = tested on: OVCAR-3 ovarian
RXF 393 renal = tested on: RXF 393 renal
SK-MEL-5 melanoma = tested on: SK-MEL-5 melanoma
SK-OV-3 ovarian = tested on: SK-OV-3 ovarian
T-47D breast = tested on: T-47D breast
UACC-257 melanoma = tested on: UACC-257 melanoma
SNB-75 CNS = tested on: SNB-75 CNS
786-0 renal = tested on: 786-0 renal
A549 NSCLC = tested on: A549 NSCLC
HOP-62 NSCLC = tested on: HOP-62 NSCLC
LOX IMVI melanoma = tested on: LOX IMVI melanoma
MDA-MB-435 = tested on: MDA-MB-435
MDA-N = tested on: MDA-N
NCI-H522 lung = tested on: NCI-H522 lung
OVCAR-5 ovarian = tested on: OVCAR-5 ovarian
SF-295 CNS = tested on: SF-295 CNS
U251 CNS = tested on: U251 CNS
MDA-MB-231 breast = tested on: MDA-MB-231 breast
NCI-H226 lung = tested on: NCI-H226 lung

COc1cc(OC)c(/C=C/S(=O)(=O)Cc2ccc(OC)c(NCC(=O)O)c2)c(OC)c1
GI50 (CAKI-1 renal): 74.8 nM [sample A, mean of 2 tests] and 1.01 µM [sample B, mean of 2 tests] | TGI (DU-145 prostate): > 10 µM [sample A, mean of 2 tests] and 954 nM [sample B, 1 test] | TGI (HL-60(TB) leukemia): 614 nM [sample A, mean of 2 tests] and > 100 µM [sample B, mean of 2 tests] | GI50 (HOP-92 NSCLC): 252 nM [sample A, mean of 2 tests] and 24.3 nM [sample B, 1 test] | TGI (HOP-92 NSCLC): > 10 µM [sample A, mean of 2 tests] and 853 nM [sample B, 1 test] | GI50 (MALME-3M melanoma): 283 nM [sample A, mean of 2 tests] and > 100 µM [sample B, 1 test] | TGI (SF-539 CNS): 746 nM [sample A, 1 test] and > 100 µM [sample B, 1 test] | GI50 (UACC-62 melanoma): 38.6 nM [sample A, 1 test] and 1.33 µM [sample B, mean of 2 tests] | GI50 (UO-31 renal): 200 nM [sample A, mean of 2 tests] and 13.6 µM [sample B, mean of 2 tests]

CCCOc1c2cc(COC3OC(CO)C(O)C(O)C3O)cc1Cc1cc(COC3OC(CO)C(O)C(O)C3O)cc(c1OCCC)Cc1cc(COC3OC(CO)C(O)C(O)C3O)cc(c1OCCC)Cc1cc(COC3OC(CO)C(O)C(O)C3O)cc(c1OCCC)C2 (stereo not drawn)
GI50 (OVCAR-4 ovarian): 3.76 µM [sample A, 1 test] and > 100 µM [sample B, 1 test] and 25.6 µM [sample C, 1 test]

CC[C@@]1(OC(=O)CN(C)C)C(=O)OCc2c1cc1n(c2=O)Cc2cc3ccccc3nc2-1
TGI (CCRF-CEM leukemia): 44 nM and 4.41 µM | TGI (EKVX NSCLC): 9.99 µM and > 100 µM | TGI (HCT-116 colon): 3.41 µM and > 100 µM | TGI (HOP-18 NSCLC): 1.71 µM and 82.3 µM | TGI (HT29 colon): 7.21 µM and > 100 µM | TGI (KM12 colon): 2.52 µM and > 65 µM | TGI (NCI/ADR-RES ovarian): 315 nM and > 100 µM | TGI (OVCAR-8 ovarian): 1.95 µM and > 100 µM | TGI (PC-3 prostate): 9.92 µM and > 100 µM | TGI (RPMI-8226 leukemia): 414 nM and > 44.6 µM | TGI (SF-268 CNS): 6.72 µM and > 100 µM | TGI (SK-MEL-28 melanoma): 7.58 µM and > 100 µM | TGI (SNB-19 CNS): 9.14 µM and > 100 µM | TGI (SW-620 colon): 4.64 µM and > 100 µM

C=CCN1C(=O)/C(=C/c2ccc(Cl)cc2)N=C1SC1OC(COC(C)=O)C(OC(C)=O)C(OC(C)=O)C1OC(C)=O (stereo not drawn)
TGI (HL-60(TB) leukemia): > 100 µM [sample A, mean of 2 tests] and 9.8 µM [sample B, 1 test] | GI50 (MOLT-4 leukemia): > 64.4 µM [sample A, mean of 2 tests] and 5.01 µM [sample B, 1 test]

C=C(C)[C@]12CC(C)C34OC(/C=C\C=C\CCCCCCCCC)(O[C@@H]1[C@@H]3[C@@H]1O[C@]1(CO)[C@@H](O)[C@]1(O)C(=O)C(C)=C[C@@H]41)O2 (stereo partly drawn)
TGI (HCC-2998 colon): 293 nM and 11.7 µM

Cc1cc(N)c2ccccc2[n+]1CCCCCCCCCC[n+]1c(C)cc(N)c2ccccc21
TGI (A498 renal): 50 µM [sample A] and 1.01 µM [sample B] | GI50 (COLO 205 colon): 1.69 µM [sample A, 1 test] and 93.5 nM [sample B, mean of 2 tests] | TGI (COLO 205 colon): 8.21 µM, 5.63 µM [sample A] and 197 nM [sample B] | GI50 (EKVX NSCLC): 2.23 µM [sample A, 1 test] and 127 nM [sample B, mean of 2 tests] | TGI (HCT-116 colon): 13.8 µM, > 100 µM [sample A] and 2.89 µM [sample B] | TGI (HOP-92 NSCLC): 50 µM [sample A] and 1.45 µM [sample B] | TGI (IGROV1 ovarian): 16.9 µM, > 100 µM [sample A] and 7.32 µM [sample B] | TGI (MALME-3M melanoma): 17 µM, 3.87 µM [sample A] and 1.04 µM [sample B] | GI50 (MCF7 breast): 1.75 µM [sample A, 1 test] and 141 nM [sample B, mean of 2 tests] | TGI (MCF7 breast): 3.25 µM, > 100 µM [sample A] and 3.41 µM [sample B] | GI50 (OVCAR-3 ovarian): 6.56 µM [sample A, 1 test] and 378 nM [sample B, mean of 2 tests] | TGI (OVCAR-3 ovarian): 25.8 µM, > 100 µM [sample A] and 1.44 µM [sample B] | GI50 (OVCAR-4 ovarian): 28.6 µM [sample A, 1 test] and 192 nM [sample B, mean of 2 tests] | TGI (OVCAR-4 ovarian): 50 µM, > 100 µM [sample A] and 5.27 µM [sample B] | GI50 (RXF 393 renal): 1.8 µM [sample A, 1 test] and 176 nM [sample B, mean of 2 tests] | TGI (RXF 393 renal): 40.2 µM, 5.8 µM [sample A] and 1.65 µM [sample B] | GI50 (SF-268 CNS): 2.86 µM [sample A, 1 test] and 209 nM [sample B, mean of 2 tests] | TGI (SK-MEL-5 melanoma): 1.62 µM, 1.9 µM [sample A] and 170 nM [sample B] | GI50 (SK-OV-3 ovarian): 7.01 µM [sample A, 1 test] and 273 nM [sample B, 1 test] | TGI (SK-OV-3 ovarian): 26.7 µM, > 100 µM [sample A] and 1.69 µM [sample B] | GI50 (SNB-19 CNS): 2.38 µM [sample A, 1 test] and 171 nM [sample B, mean of 2 tests] | TGI (T-47D breast): 50 µM [sample A] and 1.24 µM [sample B] | GI50 (UACC-257 melanoma): 1.95 µM [sample A, 1 test] and 126 nM [sample B, mean of 2 tests] | TGI (UACC-257 melanoma): 48 µM, 14.1 µM [sample A] and 859 nM [sample B] | TGI (UACC-62 melanoma): 9.59 µM [sample A] and 841 nM [sample B]

CCCCCCCCCCCCCCCC(=O)N[C@H]1CCc2cc(OC)c(OC)c(OC)c2-c2ccc(SC)c(=O)cc21
TGI (EKVX NSCLC): 7.49 µM and 94.2 µM | TGI (SNB-75 CNS): 680 nM and > 100 µM

COc1ccc(CC2C(=O)NC(C)C(=O)N(C)C3Cc4ccc(cc4)Oc4cc(ccc4O)CC(C(=O)NC(C)C(=O)NC(C)C(=O)N2C)N(C)C3=O)cc1 (stereo not drawn)
TGI (786-0 renal): 11.3 nM and 117 nM | GI50 (A549 NSCLC): 0.843 nM, 50.9 nM [1 test] and 17.5 nM [mean of 4 tests] | TGI (CAKI-1 renal): 23.2 µM [1 test] and 789 nM [mean of 3 tests] | TGI (HL-60(TB) leukemia): 1.57 nM and 377 nM | TGI (HOP-62 NSCLC): 246 nM, 4.4 µM, 71.7 nM | TGI (LOX IMVI melanoma): 0.157 nM and 124 nM | TGI (MALME-3M melanoma): 8.5 nM, 117 nM, 27.6 nM | TGI (MCF7 breast): 1.01 nM and 32.4 nM | TGI (MDA-MB-435): 1.16 nM and 13.9 nM | TGI (MDA-N): 0.366 nM and 10.6 nM | TGI (MOLT-4 leukemia): 58.8 nM and 697 nM | TGI (NCI-H522 lung): 0.324 nM and 106 nM | GI50 (OVCAR-5 ovarian): 0.141 nM [1 test] and 17.5 nM [mean of 4 tests] | TGI (SF-268 CNS): 0.26 nM and 12.2 nM | GI50 (SF-295 CNS): 0.305 nM, 11.3 nM [1 test] and 17.5 nM [mean of 4 tests] | TGI (SF-295 CNS): 17.9 nM, 18.2 µM [1 test] and 80.9 nM [mean of 4 tests] | TGI (SK-MEL-28 melanoma): 257 nM and 22.3 nM | TGI (SK-OV-3 ovarian): 70.6 µM and 135 nM | TGI (SW-620 colon): 877 nM, 12.6 µM, 849 nM | TGI (U251 CNS): 0.751 nM and 19.1 nM | TGI (UACC-257 melanoma): 0.64 nM and 22.1 nM

COc1cc(OC)cc(N2CCN(C(=O)Nc3nc4cc(F)ccc4nc3OC)CC2)c1
TGI (A498 renal): 1.37 µM [sample A, mean of 2 tests] and 77.1 nM, 68.1 nM [sample B, 1 test] | TGI (HL-60(TB) leukemia): 55.9 nM [sample A, mean of 2 tests] and 93.3 nM, 5.71 µM [sample B, 1 test] | TGI (HT29 colon): 22.2 µM [sample A, mean of 2 tests] and 84.7 nM [sample B, 1 test] | TGI (MDA-MB-231 breast): 22.1 µM [sample A, mean of 2 tests] and 284 nM [sample B, 1 test] | TGI (NCI-H226 lung): > 100 µM [sample A, mean of 2 tests] and 615 nM, 70.2 µM [sample B, 1 test] | TGI (OVCAR-3 ovarian): 15.4 µM [sample A, mean of 2 tests] and 68.7 nM, 71.8 nM [sample B, 1 test] | GI50 (OVCAR-4 ovarian): 960 nM [sample A, mean of 2 tests] and 86 nM, 57.4 nM [sample B, 1 test] | TGI (SF-539 CNS): 923 nM [sample A, mean of 2 tests] and 70 nM, 49.9 nM [sample B, 1 test]
